Measured values reported in paper PMC8482806, “A Novel Blood-Brain Barrier-Permeable Chemotherapeutic Agent for the Treatment of Glioblastoma” (Cureus, 2021).
This continues a long series; more values of the same kind are listed elsewhere.

Experiment: [14C]-QBS10072S distribution by quantitative whole-body autoradiography in mice with intracranial LN229 tumors
Assay type: in vivo, mouse
Conditions: 5 mg/kg IV
Description: Athymic mice with intracranial implanted LN229 cells received a single IV dose of 5 mg/kg and 200 μCi/kg [14C]-QBS10072S into the tail vein using the formulation described above. Animals (one per time point) were sacrificed one, eight, and 24 hours post-dose, and frozen in a hexane/solid carbon dioxide bath for at least 10 minutes. The carcasses were processed as described for quantitative whole-body autoradiography. Briefly, sagittal sections (~ 40 μm thick) were cut using a microtome, mounted, and exposed to a [14C]-sensitive phosphor imaging plate for four days. The images were scanned and quantitated by image densitometry using MCID image analysis software. The concentrations of radioactivity were expressed as the μg equivalents of test article per gram sample (μg equiv/g). The upper and lower limits of quantification were 550 and 0.008 μg equiv/g, respectively (QPS, Newark, DE).

Cc1ccc(N(CCCl)C[14CH2]Cl)cc1C[C@H](N)CC(=O)O.Cl.Cl [[14C]-QBS10072S, [chloroethyl-2-14C]-QBS10072S×2HCl]
Tissue Concentration (Bile (in gall bladder), 1 h): 3.649 µg equiv/g tissue
Tissue Concentration (Bile (in gall bladder), 8 h): 2.006 µg equiv/g tissue
Tissue Concentration (Bile (in gall bladder), 24 h): 0.564 µg equiv/g tissue
Tissue Concentration (Bone Marrow, 1 h): 1.320 µg equiv/g tissue
Tissue Concentration (Bone Marrow, 8 h): 0.386 µg equiv/g tissue
Tissue Concentration (Bone Marrow, 24 h): 0.520 µg equiv/g tissue
Tissue Concentration (Eye (lens), 1 h): 0.078 µg equiv/g tissue
Tissue Concentration (Eye (lens), 8 h): 0.023 µg equiv/g tissue
Tissue Concentration (Eye (lens), 24 h): 0.013 µg equiv/g tissue
Tissue Concentration (Eye (uvea), 1 h): 0.692 µg equiv/g tissue
Tissue Concentration (Eye (uvea), 8 h): 0.277 µg equiv/g tissue
Tissue Concentration (Eye (uvea), 24 h): 0.166 µg equiv/g tissue
Tissue Concentration (Kidney (cortex), 1 h): 5.848 µg equiv/g tissue
Tissue Concentration (Kidney (cortex), 8 h): 1.272 µg equiv/g tissue
Tissue Concentration (Kidney (cortex), 24 h): 1.077 µg equiv/g tissue
Tissue Concentration (Kidney (inner medulla), 1 h): 3.704 µg equiv/g tissue
Tissue Concentration (Kidney (inner medulla), 8 h): 0.498 µg equiv/g tissue
Tissue Concentration (Kidney (inner medulla), 24 h): 0.458 µg equiv/g tissue
Tissue Concentration (Large Intestine (contents), 1 h): 4.090 µg equiv/g tissue
Tissue Concentration (Large Intestine (contents), 8 h): 147.823 µg equiv/g tissue
Tissue Concentration (Large Intestine (contents), 24 h): 19.396 µg equiv/g tissue
Tissue Concentration (Large Intestine, 8 h): 0.594 µg equiv/g tissue
Tissue Concentration (Large Intestine, 24 h): 0.511 µg equiv/g tissue
Tissue Concentration (Lymph Node, 1 h): 1.670 µg equiv/g tissue
Tissue Concentration (Lymph Node, 8 h): 0.481 µg equiv/g tissue
Tissue Concentration (Lymph Node, 24 h): 0.354 µg equiv/g tissue
Tissue Concentration (Oral Mucosa, 1 h): 0.900 µg equiv/g tissue
Tissue Concentration (Oral Mucosa, 8 h): 0.399 µg equiv/g tissue
Tissue Concentration (Oral Mucosa, 24 h): 0.390 µg equiv/g tissue
Tissue Concentration (Small Intestine (contents), 1 h): 65.367 µg equiv/g tissue
Tissue Concentration (Small Intestine (contents), 8 h): 1.429 µg equiv/g tissue
Tissue Concentration (Small Intestine (contents), 24 h): 3.802 µg equiv/g tissue
Tissue Concentration (Small Intestine, 1 h): 4.374 µg equiv/g tissue
Tissue Concentration (Small Intestine, 8 h): 0.760 µg equiv/g tissue
Tissue Concentration (Small Intestine, 24 h): 0.355 µg equiv/g tissue
Tissue Concentration (Spleen, 1 h): 1.625 µg equiv/g tissue
Tissue Concentration (Spleen, 8 h): 0.370 µg equiv/g tissue
Tissue Concentration (Spleen, 24 h): 0.503 µg equiv/g tissue
Tissue Concentration (Stomach (contents), 1 h): 0.160 µg equiv/g tissue
Tissue Concentration (Stomach (contents), 8 h): 0.405 µg equiv/g tissue
Tissue Concentration (Stomach (contents), 24 h): 4.882 µg equiv/g tissue
Tissue Concentration (Stomach (gastric mucosa), 1 h): 1.066 µg equiv/g tissue
Tissue Concentration (Stomach (gastric mucosa), 8 h): 0.591 µg equiv/g tissue
Tissue Concentration (Stomach (gastric mucosa), 24 h): 0.565 µg equiv/g tissue
